From the supplement of paper PMC3334620
The full ranking holds about 33,000 sequences; the median of “E-score (-0.5 to 0.5)” is about -0.036, and the highest 2% start at about 0.37. Some of the results follow.

Molecular target: T1, Yer064c (UniProt P40041)
T1 sequence: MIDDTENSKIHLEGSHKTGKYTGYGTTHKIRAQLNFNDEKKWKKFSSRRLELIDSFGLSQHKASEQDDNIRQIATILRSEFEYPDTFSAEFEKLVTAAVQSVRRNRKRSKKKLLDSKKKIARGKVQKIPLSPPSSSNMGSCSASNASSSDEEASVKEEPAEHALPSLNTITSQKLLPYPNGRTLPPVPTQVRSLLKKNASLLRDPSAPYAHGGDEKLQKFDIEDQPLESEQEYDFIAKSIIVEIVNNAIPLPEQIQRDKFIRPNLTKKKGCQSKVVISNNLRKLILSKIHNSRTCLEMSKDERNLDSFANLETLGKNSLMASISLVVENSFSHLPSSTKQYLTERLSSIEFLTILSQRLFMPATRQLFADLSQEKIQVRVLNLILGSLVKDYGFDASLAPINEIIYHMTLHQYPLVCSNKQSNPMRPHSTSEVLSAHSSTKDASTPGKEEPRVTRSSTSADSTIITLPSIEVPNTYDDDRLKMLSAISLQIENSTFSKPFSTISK
Experiment: PBM E-score (8-mer binding enrichment) (E-score (-0.5 to 0.5)); higher = stronger / more preferred TF binding; most listed sequences are background and not binding sites
Conditions: protein concentration: 200 nM; construct: GST-full length
Procedure, shortened: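 Universal all-10-mer Agilent arrays, fresh or stripped once, were converted to double-stranded form by primer extension. GST-tagged yeast transcription factors from PURExpress in vitro transcription/translation, full-length or DNA-binding domain only, were applied at about 100-200 nM and detected with fluorescent anti-GST. After masliner normalisation, the Universal PBM Analysis Suite scored each ungapped eight-base word together with its reverse complement by E-score.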

Sequence	PBM E-score
TCACAGAA	0.232
GCGGGCTA	-0.133
GATTACTA	0.294
AAACCCCG	0.00286
ACGAGCAT	-0.153
CCGTACTA	-0.0925
CACTAGCG	-0.219
CCAGGGTA	-0.0928
CAAGCCTA	-0.138
CTTTGGAC	0.0807
ATTCTCGG	0.0573
ACCAACGA	-0.0117
GTCACCAC	0.29
GCACAAGA	0.00075
TCCCGAGA	0.0528
CAAGGTCC	-0.203
AGCTTTCG	-0.159
ACGTTACG	-0.0552
TATCCCAA	-0.144
GTAACCCA	0.234
AGACTTAG	0.257
ACGACACG	-0.0336
AGGAACAA	0.0963
ACTAAGAA	0.256
AGTTCGGC	-0.104

Sequence	PBM E-score
TATGAGGA	-0.02
TACATTGA	0.0284
CCTAGTTA	0.0589
CATCGTAG	0.098
CCCACTCA	0.0376
GGACCAAA	-0.11
ACGAGTCC	0.289
GGCCATAC	-0.235
ACGCTTAC	-0.155
ATTGTAGC	0.0452
CATATCAC	-0.0653
ATCTATCC	-0.0727
AGGTATCA	-0.0934
CCGAACAC	0.0199
AAGAGAAT	-0.0224
ATTGCTAC	-0.151
TCGTAAGA	0.0845
GTGTAACA	0.0398
GTAGTCAA	0.445
CGGGAACC	-0.163
AAGTGTTC	0.00118
AAGTATGA	0.226
GGATAGCC	-0.00217
AGTTAAAA	-0.0467
GCCCCTAC	-0.229

Sequence	PBM E-score
ACAAGGTA	-0.206
AATAGCGC	-0.177
GGTCCACA	-0.0762
AACACTCG	-0.0385
CTGGCCCC	-0.268
CTACTGGC	-0.277
AAAGGACC	-0.216
CTCTGAGC	-0.152
CTCCAGCA	-0.147
ATGACCAA	0.0547
CTCGTCCA	0.179
AAGATCGA	-0.133
GTCATGAA	0.308
AATGTGAT	0.146
AGCGCACC	-0.18
GATTCACC	0.372
GTCGACCA	0.00581
ACGGTCGC	-0.225
AGGCTACT	-0.205
AGGGTGTA	0.00346
AAATGAGG	-0.229
ATGTCGAC	-0.0233
GCCTCGCC	-0.359
AAACTCCG	0.0383
GTATATAC	0.0299

Sequence	PBM E-score
ACCTTTAA	0.00789
TCGACGCA	0.00283
CTGTCATC	-0.19
CATTAAGC	0.00209
TCAATCGA	0.175
ATCCCAAA	-0.0524
AGAAACAG	-0.164
CAGAGTGG	-0.106
ACGTAGTG	-0.132
AGACGCCT	-0.149
GATTACCA	0.315
AAAGTAGT	0.236
CATTAGGG	-0.242
ACATCACA	-0.0462
AACTACTA	-0.0232
GCCGATTA	-0.0381
GCGTCAGA	-0.116
CCAGGCCC	-0.34
ATTGCCCC	-0.271
CCTACTAC	-0.179
GCCGTGCA	-0.055
TAACTGGA	-0.0871
GGCCTACC	-0.309
CCTAGGTC	0.0791
ATGAGTAC	0.415

Sequence	PBM E-score
CCTCGTAC	-0.189
AACTTTTA	0.00975
GCTTTACC	-0.0725
CCTCAAAA	-0.108
CTGTCAAG	-0.18
GGAACCCC	-0.383
CTGACAAG	0.0529
CTAATATA	0.241
AAGACGCC	-0.0564
AGGCCAGG	-0.251
ATCAAAAG	0.188
CACCTGCA	-0.0136
GTAGCCGA	-0.00862
GAACGTGA	0.116
GCCTCGTA	-0.128
ACCCTTTC	-0.185
ACAGACGC	-0.269
GACGCTCC	-0.268
CATGCTAA	0.104
GGGCGCCC	-0.184
CGTCGGAG	0.06
CTAATGCA	0.129
CACGTCTC	-0.0632
ATAAACCG	-0.0959
GCGCACCC	-0.182

Sequence	PBM E-score
GCCTGAAA	-0.00965
ACACACGG	0.0742
AACCGACC	-0.101
GAATAACC	-0.0513
CAACGCAG	0.0141
ATGCTGAG	0.0046
CGCAGTTA	-0.0186
ACTGGTCT	0.0545
AATAAGCC	-0.169
ATGAGCAT	0.0969
CCGCCTGA	-0.138
CAGGTTTA	0.11
AGCGATGA	0.24
TAAGACGA	0.0133
ATGAGAAA	0.0542
ACGGTGCC	-0.157
ACAAAGTC	0.156
CAGATATC	0.179
ACTAGACT	0.226
AGTGTCAA	0.271
ACCTAGGT	-0.175
CCCGCACG	-0.0871
CCGCTGAC	0.209
AGTGAAAA	0.0331
GTATCGCA	-0.0495

Sequence	PBM E-score
GAATCACC	0.456
CGGGACCG	-0.154
ATAATGGG	0.0748
ATATGTAA	-0.0839
CAAGATAA	0.072
CGGACGAC	0.093
ACTCCGTA	0.0704
AGACCAGC	-0.247
ATCGAAAT	-0.0301
AGAGATCA	0.0253
CTGTAATC	0.19
ACGGAACT	-0.171
CAAGTTCG	-0.277
ATCGACTA	0.251
ACCCAAGG	-0.00554
TAACGGGA	0.00305
CAAGATGA	0.244
TATCAGCA	-0.0633
GCTCCGAC	-0.0559
ATTCTGCA	0.207
ATCTGGGC	-0.268
ATGCGCCA	-0.351
